# Data: the supplement of paper PMC12217912
# The list shows a part of the results. The full chains were built here from the parent and the listed change. Values near 0.05 are background.
# B1: TEV protease; numbered along this chain (parent)
# chain: MGESLFKGPRDYNPISSSICHLTNESDGHTTSLYGIGFGPFIITNKHLFRRNNGTLVVQSLHGVFKVKDTTTLQQHLVDGRDMIIIRMPKDFPPFPQKLKFREPQREERICLVTTNFQTKSMSSMVSDTSCTFPSGDGIFWKHWIQTKDGQCGSPLVSTRDGFIVGIHSASNFTNTNNYFTSVPKNFMELLTNQEAQQWVSGWRLNADSVLWGGHKVFMVKPEEPFQPVKEATQL
# Variants of: B1
# Assay: raw area under fraction-flipped curve 0-4 h after induction (AUC4h, not background-subtracted), DNA-recorder readout of cleavage of the substrate (dimensionless); higher = more cleavage of the substrate by the protease variant
# Details: temperature: 34 °C; time window: 0-4 h after rhamnose induction
# Experimental: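 In vivo DNA recorder in E. coli TOP10(DE3) ΔrhaA at 34 °C. Each TEVp single-site mutant (parent TEVp 0) is paired with a single-site variant of the 7-mer TEVs (canonical ENLYFQ|S). The substrate sits between flexible linkers in a Bxb1-sfGFP-TEVs-SsrA fusion, so cleavage stabilises Bxb1 and speeds flipping of a recombination array, read by NGS. The value is the raw area under the fraction-flipped curve over 0-4 h after rhamnose induction (AUC4h), with ≥20 reads per time point. It is not background-subtracted; inactive controls average about 0.047.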
# 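Also: Bxb1 expression induced with 0.2% (w/v) L-rhamnose at OD600 near 0.5, cultures sampled hourly, flipped fraction per protease–substrate barcode pair counted by paired-end Illumina sequencing.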
Variant,area with substrate ECLYFQS,area with substrate EELYFQS,area with substrate EGLYFQS,area with substrate EHLYFQS,area with substrate EILYFQS,area with substrate EQLYFQS,area with substrate ERLYFQS,area with substrate ESLYFQS,area with substrate EVLYFQS,area with substrate EWLYFQS,area with substrate EDLYFQS,area with substrate ELLYFQS,area with substrate EMLYFQS,area with substrate EPLYFQS,area with substrate EYLYFQS,area with substrate EFLYFQS,area with substrate EKLYFQS,area with substrate ETLYFQS
MGESLFKGPRDYNPISSSICHLTNESDGHTTSLYGIGFGPFIITNKHLFRRNNGTLVVQSLHGVFKVKDTTTLQQHLVDGRDMIIIRMPKDFPPFPQKLKFREPQREERICLVTTNFQTKSMSSMVSDTSCTFPSGDGIFWKHWIQTKDGQCGSPLVSTRDGFIVGIHSASNFTNTNNYFTSVPKNFMELDTNQEAQQWVSGWRLNADSVLWGGHKVFMVKPEEPFQPVKEATQL [L191D],0.0445,0.0549,0.0699,0.0656,0.055,0.0581,0.062,0.0565,0.0656,0.0511,–,–,–,–,–,–,–,–
MGESLFKGPRDYNPISSSICHLTNESDGHTTSLYGIGFGPFIITNKHLFRRNNGTLVVQSLHGVFKVKDTTTLQQHLVDGRDMIIIRMPKDFPPFPQKLKFREPQREERICLVTTNFQTKSMSSMVSDTSCTFPSGDGIFWKHWIQTKDGQCGSPLVSTRDGFIVGIHSASNFTNTNNYFTSVPKNFMELGTNQEAQQWVSGWRLNADSVLWGGHKVFMVKPEEPFQPVKEATQL [L191G],0.0702,0.0659,0.0519,0.0558,0.0346,0.0559,0.0648,0.0617,0.059,–,0.0569,0.0488,0.0564,0.0455,0.0548,–,–,–
MGESLFKGPRDYNPISSSICHLTNESDGHTTSLYGIGFGPFIITNKHLFRRNNGTLVVQSLHGVFKVKDTTTLQQHLVDGRDMIIIRMPKDFPPFPQKLKFREPQREERICLVTTNFQTKSMSSMVSDTSCTFPSGDGIFWKHWIQTKDGQCGSPLVSTRDGFIVGIHSASNFTNTNNYFTSVPKNFMELMTNQEAQQWVSGWRLNADSVLWGGHKVFMVKPEEPFQPVKEATQL [L191M],0.111,0.0952,0.079,0.0979,0.0844,0.108,0.0846,0.0966,0.088,0.0953,0.0966,0.0791,0.0998,0.123,0.109,0.0895,0.116,0.0542
MGESLFKGPRDYNPISSSICHLTNESDGHTTSLYGIGFGPFIITNKHLFRRNNGTLVVQSLHGVFKVKDTTTLQQHLVDGRDMIIIRMPKDFPPFPQKLKFREPQREERICLVTTNFQTKSMSSMVSDTSCTFPSGDGIFWKHWIQTKDGQCGSPLVSTRDGFIVGIHSASNFTNTNNYFTSVPKNFMELLTGQEAQQWVSGWRLNADSVLWGGHKVFMVKPEEPFQPVKEATQL [N193G],0.0935,–,–,0.0905,–,–,0.0986,–,–,–,–,–,–,–,0.114,–,0.0722,–
MGESLFKGPRDYNPISSSICHLTNESDGHTTSLYGIGFGPFIITNKHLFRRNNGTLVVQSLHGVFKVKDTTTLQQHLVDGRDMIIIRMPKDFPPFPQKLKFREPQREERICLVTTNFQTKSMSSMVSDTSCTFPSGDGIFWKHWIQTKDGQCGSPLVSTRDGFIVGIHSASNFTNTNNYFTSVPKNFMELLTTQEAQQWVSGWRLNADSVLWGGHKVFMVKPEEPFQPVKEATQL [N193T],0.104,–,0.104,0.127,–,–,0.0964,0.0943,0.0849,–,0.105,0.0745,0.11,–,–,–,–,0.101
MGESLFKGPRDYNPISSSICHLTNESDGHTTSLYGIGFGPFIITNKHLFRRNNGTLVVQSLHGVFKVKDTTTLQQHLVDGRDMIIIRMPKDFPPFPQKLKFREPQREERICLVTTNFQTKSMSSMVSDTSCTFPSGDGIFWKHWIQTKDGQCGSPLVSTRDGFIVGIHSASNFTNTNNYFTSVPKNFMELLTNTEAQQWVSGWRLNADSVLWGGHKVFMVKPEEPFQPVKEATQL [Q194T],0.0969,0.115,0.126,0.11,0.0968,–,0.125,0.108,–,0.0882,–,0.0776,0.123,0.15,0.11,–,0.112,–
MGESLFKGPRDYNPISSSICHLTNESDGHTTSLYGIGFGPFIITNKHLFRRNNGTLVVQSLHGVFKVKDTTTLQQHLVDGRDMIIIRMPKDFPPFPQKLKFREPQREERICLVTTNFQTKSMSSMVSDTSCTFPSGDGIFWKHWIQTKDGQCGSPLVSTRDGFIVGIHSASNFTNTNNYFTSVPKNFMELLTNQMAQQWVSGWRLNADSVLWGGHKVFMVKPEEPFQPVKEATQL [E195M],0.13,0.0946,–,0.069,0.0918,0.0778,0.0764,0.0852,–,–,0.101,–,–,–,–,–,0.0824,–
MGESLFKGPRDYNPISSSICHLTNESDGHTTSLYGIGFGPFIITNKHLFRRNNGTLVVQSLHGVFKVKDTTTLQQHLVDGRDMIIIRMPKDFPPFPQKLKFREPQREERICLVTTNFQTKSMSSMVSDTSCTFPSGDGIFWKHWIQTKDGQCGSPLVSTRDGFIVGIHSASNFTNTNNYFTSVPKNFMELLTNQEEQQWVSGWRLNADSVLWGGHKVFMVKPEEPFQPVKEATQL [A196E],0.125,0.133,0.0799,–,0.111,0.113,0.0918,0.104,0.0969,0.0987,0.127,0.0915,0.132,0.169,0.118,–,0.109,–
MGESLFKGPRDYNPISSSICHLTNESDGHTTSLYGIGFGPFIITNKHLFRRNNGTLVVQSLHGVFKVKDTTTLQQHLVDGRDMIIIRMPKDFPPFPQKLKFREPQREERICLVTTNFQTKSMSSMVSDTSCTFPSGDGIFWKHWIQTKDGQCGSPLVSTRDGFIVGIHSASNFTNTNNYFTSVPKNFMELLTNQEKQQWVSGWRLNADSVLWGGHKVFMVKPEEPFQPVKEATQL [A196K],0.104,0.151,0.0938,–,0.0943,–,0.0452,0.11,0.103,0.0916,0.137,0.103,0.117,0.108,–,–,0.11,–
MGESLFKGPRDYNPISSSICHLTNESDGHTTSLYGIGFGPFIITNKHLFRRNNGTLVVQSLHGVFKVKDTTTLQQHLVDGRDMIIIRMPKDFPPFPQKLKFREPQREERICLVTTNFQTKSMSSMVSDTSCTFPSGDGIFWKHWIQTKDGQCGSPLVSTRDGFIVGIHSASNFTNTNNYFTSVPKNFMELLTNQEAQCWVSGWRLNADSVLWGGHKVFMVKPEEPFQPVKEATQL [Q198C],0.104,0.104,0.0978,0.127,0.0947,0.129,0.0779,0.111,0.0966,–,–,0.0947,0.118,0.0975,0.0992,–,0.101,0.104
